Variants at the background level are over-represented here.
B1: TPR 5TU (parent)
chain: GGAUCUUCUCGAUCUAACAAAAAAGACAAAUCUGCCACAAAGCUUGAGAGCAUCUUCGGAUGCAGAGGCGGCAGCCUUCGGUGGCGCGAUAGCGCCAACGUUCUCAACUAUGACACGCAAAACGCGUGCUCCGUUGAAUGGAGUUUAUCAUG

Variants of: B1
Assay: polymerase ribozyme fitness, log enrichment relative to wild type (log ratio); higher = more active; in vitro selection for triplet polymerase activity
In short: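 For each subunit of a heterodimeric triplet polymerase ribozyme, a mutant library was built by PCR and transcribed, then taken through a single in vitro selection round in triplicate. Selection involved annealing to a biotinylated primer, the partner subunit and triplets, incubation frozen at −7 °C, gel excision of extended constructs, capture on streptavidin beads and RT-PCR. Genotypes were retained after Illumina sequencing of inputs and outputs only with ≥10 input reads and ≥1 read in each output. Fitness is defined as the logarithm of a genotype's enrichment relative to wild-type enrichment, using inverse-variance-weighted averages across replicates, with the logarithm taken to base 2.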

Variant | polymerase ribozyme fitness (log ratio)
C93U A120C G133A | ≤ -4.2
C93U C95U C149A | ≤ -4.2
C93U C95U U102A A106G | -2.87
C93U C99U | -2.8
C93U C132U C149G | ≤ -4.2
C93U C149U | -1.57
C93U G94U | -1.43
C93U G117C C125A | -0.271
C93U G136C | -4.02
C93U U104A C105U A119U | ≤ -4.2
C93U U135A | -2.01
C93U U144G | -0.253
G94A C96G U148A | ≤ -4.2
G94A C105G C116A G141C | ≤ -4.2
G94A C108A A137C | ≤ -4.2
G94A C114U | -1.93
G94A C123G U146G | -1.05
G94A G141U | 0.898
G94A U146G | -1.25
G94C A97U C103A C125U U139A | ≤ -4.2
G94C A106C G136U U148C | ≤ -4.2

Variant | polymerase ribozyme fitness (log ratio)
G94C A120U U139A | ≤ -4.2
G94C C105A | -1.22
G94C C108G | ≤ -4.2
G94C C116U | -0.0318
G94C C131U | -1.79
G94C G126A C132A | -2.93
G94C U101C | -0.185
G94C U102A C149G | ≤ -4.2
G94U A113G A142U | ≤ -4.2
G94U G140A G141U | ≤ -4.2
G94U U104C C129U U134A | ≤ -4.2
C95G C96G | -2.17
C95U A98C | -1
C95U A98G C105U | 0.768
C95U A107G | -4.16
C95U A113G C149G | ≤ -4.2
C95U C96U G124U G136C | -3.61
C95U C105G | -0.337
C95U C105G A107C C149G | ≤ -4.2
C95U C114U | -1.72
C95U C116A C129G U148G | ≤ -4.2

Variant | polymerase ribozyme fitness (log ratio)
C95U U101G C105U C125U A142U | ≤ -4.2
C95U U102A A113C C149G | ≤ -4.2
C95U U102C | -1.06
C96A A138U | ≤ -4.2
C96A C125U G143A | -3.57
C96A G112C | -3.31
C96A G117U A138U | ≤ -4.2
C96A G136A | -0.205
C96A U104A G124C | -1.19
C96A U135G U144G | ≤ -4.2
C96A U144A | -0.177
C96G A110U U134G U145C | ≤ -4.2
C96G A121C C129U | -0.0949
C96G A138U | ≤ -4.2
C96G C105G | -1.92
C96G C108U | -2.5
C96G G100U | -3.95
C96G G141C | -0.919
C96G G152U | -2.77
C96U A97C | 0.0607
C96U A97U U134G A138C | ≤ -4.2

Variant | polymerase ribozyme fitness (log ratio)
C96U A107U | -3.35
C96U A110U | -3.6
C96U A115U A147G | ≤ -4.2
C96U A119C G141A | 0.872
C96U C125A G128A U134A A142U | ≤ -4.2
C96U C149U | -0.874
C96U G100U | -3.13
C96U G112C U135G G140A G141U | ≤ -4.2
C96U G143C | -3.12
A97C | 0.773
A97G C131G | -3.21
A97U G117U | -1.25
A97U G141C G143U | ≤ -4.2
A97U U151G | ≤ -4.2
A98G A138C | ≤ -4.2
A98G C132G G136C | -4.12
A98G G100U U102G U148A | ≤ -4.2
A98G G128A | -3.02
A98U A138G | -3.32
A98U G100C C105U A110G | ≤ -4.2
A98U G136C | -3.87

— the RNAGym collection of RNA variant scans (doi:10.1073/pnas.2313332121)
